Data as given in the supplement of paper PMC8728848.
Some of the results follow.

Legend:
Assay in all cases: glycan array binding signal (z-score within array); higher = stronger binding
Details in all cases: glycan notation: IUPAC condensed, linker removed
[1] = target: Gal(b1-3)GlcNAc(b1-2)Man(a1-3)[Gal(b1-3)GlcNAc(b1-2)Man(a1-6)]Man(b1-4)GlcNAc(b1-4)[Fuc(a1-6)]GlcNAc
How it was run: (§1)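 Columns mapping to the same glycan were averaged after glycan names were converted to IUPAC-condensed notation. The data come from 3228 arrays in the Consortium for Functional Glycomics database, limited to those with an available protein sequence. Binding is reported as a within-array Z-score averaged across arrays of one protein sequence and across linkers.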

[2] = target: Gal(b1-3)GlcNAc(b1-2)Man(a1-3)[GlcNAc(b1-4)][Gal(b1-3)GlcNAc(b1-2)Man(a1-6)]Man(b1-4)GlcNAc(b1-4)GlcNAc
How it was run: as §1

[3] = target: Gal(b1-3)GlcNAc(b1-2)[Gal(b1-3)GlcNAc(b1-6)]Man(a1-6)[Gal(b1-3)GlcNAc(b1-2)Man(a1-3)]Man(b1-4)GlcNAc(b1-4)GlcNAc
How it was run: as §1

[4] = target: Gal(b1-3)GlcNAc(b1-3)Gal(b1-3)GlcNAc
How it was run: as §1

[5] = target: Gal(b1-3)GlcNAc(b1-3)Gal(b1-4)Glc
How it was run: as §1

[6] = target: Gal(b1-3)GlcNAc(b1-3)Gal(b1-4)GlcNAc
How it was run: as §1

[7] = target: Gal(b1-3)GlcNAc(b1-3)Gal(b1-4)GlcNAc(b1-2)Man(a1-3)[Gal(b1-3)GlcNAc(b1-3)Gal(b1-4)GlcNAc(b1-2)Man(a1-6)]Man(b1-4)GlcNAc(b1-4)GlcNAc
How it was run: as §1

[8] = target: Gal(b1-3)GlcNAc(b1-3)Gal(b1-4)GlcNAc(b1-2)[Gal(b1-3)GlcNAc(b1-3)Gal(b1-4)GlcNAc(b1-6)]Man(a1-6)[Gal(b1-3)GlcNAc(b1-3)Gal(b1-4)GlcNAc(b1-2)Man(a1-3)]Man(b1-4)GlcNAc(b1-4)[Fuc(a1-6)]GlcNAc
How it was run: as §1

[9] = target: Gal(b1-3)GlcNAc(b1-3)Gal(b1-4)GlcNAc(b1-3)Gal(b1-4)GlcNAc(b1-2)[Gal(b1-3)GlcNAc(b1-3)Gal(b1-4)GlcNAc(b1-3)Gal(b1-4)GlcNAc(b1-6)]Man(a1-6)[Gal(b1-3)GlcNAc(b1-3)Gal(b1-4)GlcNAc(b1-3)Gal(b1-4)GlcNAc(b1-2)Man(a1-3)]Man(b1-4)GlcNAc(b1-4)[Fuc(a1-6)]GlcNAc
How it was run: as §1

[10] = target: Gal(b1-3)GlcNAc(b1-3)Gal(b1-4)GlcNAc(b1-6)[Gal(b1-3)GlcNAc(b1-3)]Gal(b1-4)Glc
How it was run: as §1

[11] = target: Gal(b1-3)GlcNAc(b1-3)Gal(b1-4)[Fuc(a1-3)]GlcNAc
How it was run: as §1

[12] = target: Gal(b1-3)GlcNAc(b1-3)Gal(b1-4)[Fuc(a1-3)]GlcNAc(b1-6)[Gal(b1-3)GlcNAc(b1-3)]Gal(b1-4)Glc
How it was run: as §1

[13] = target: Gal(b1-3)GlcNAc(b1-3)GalNAc
How it was run: as §1

[14] = target: Gal(b1-3)GlcNAc(b1-6)Gal(b1-4)GlcNAc
How it was run: as §1

[15] = target: Gal(b1-3)GlcNAc(b1-6)GalNAc
How it was run: as §1

[16] = target: Gal(b1-3)GlcNAc(b1-6)[Gal(b1-3)]GalNAc
How it was run: as §1

[17] = target: Gal(b1-3)GlcNAc6S
How it was run: as §1

[18] = target: Gal(b1-3)[Fuc(a1-4)]GlcNAc
How it was run: as §1

[19] = target: Gal(b1-3)[Fuc(a1-4)]GlcNAc(b1-2)Man
How it was run: as §1

[20] = target: Gal(b1-3)[Fuc(a1-4)]GlcNAc(b1-2)Man(a1-3)[Gal(b1-3)[Fuc(a1-4)]GlcNAc(b1-2)Man(a1-6)]Man(b1-4)GlcNAc(b1-4)[Fuc(a1-6)]GlcNAc
How it was run: as §1

[21] = target: Gal(b1-3)[Fuc(a1-4)]GlcNAc(b1-3)Gal(b1-3)[Fuc(a1-4)]GlcNAc
How it was run: as §1

[22] = target: Gal(b1-3)[Fuc(a1-4)]GlcNAc(b1-3)Gal(b1-4)[Fuc(a1-3)]GlcNAc
How it was run: as §1

[23] = target: Gal(b1-3)[Fuc(a1-4)]GlcNAc(b1-6)GalNAc
How it was run: as §1

[24] = target: Gal(b1-3)[GlcNAc(b1-6)]GalNAc
How it was run: as §1

[25] = target: Gal(b1-3)[Neu5Ac(a2-6)]GalNAc
How it was run: as §1

[26] = target: Gal(b1-3)[Neu5Ac(a2-6)]GlcNAc(b1-4)Gal(b1-4)Glc
How it was run: as §1

[27] = target: Gal(b1-3)[Neu5Ac(b2-6)]GalNAc
How it was run: as §1

[28] = target: Gal(b1-4)Gal
How it was run: as §1

[29] = target: Gal(b1-4)GalNAc(a1-3)[Fuc(a1-2)]Gal(b1-4)GlcNAc
How it was run: as §1

[30] = target: Gal(b1-4)GalNAc(b1-3)[Fuc(a1-2)]Gal(b1-4)GlcNAc
How it was run: as §1

[31] = target: Gal(b1-4)Glc
How it was run: as §1

[32] = target: Gal(b1-4)Glc6S
How it was run: as §1

[33] = target: Gal(b1-4)GlcNAc
How it was run: as §1

[34] = target: Gal(b1-4)GlcNAc(a1-6)Gal(b1-4)GlcNAc
How it was run: as §1

[35] = target: Gal(b1-4)GlcNAc(b1-2)Man
How it was run: as §1

[36] = target: Gal(b1-4)GlcNAc(b1-2)Man(a1-3)Man(b1-4)GlcNAc(b1-4)GlcNAc
How it was run: as §1

[37] = target: Gal(b1-4)GlcNAc(b1-2)Man(a1-3)[Gal(b1-4)GlcNAc(b1-2)Man(a1-6)]Man(b1-4)GlcNAc(b1-4)GlcNAc
How it was run: as §1

[38] = target: Gal(b1-4)GlcNAc(b1-2)Man(a1-3)[Gal(b1-4)GlcNAc(b1-2)Man(a1-6)]Man(b1-4)GlcNAc(b1-4)[Fuc(a1-6)]GlcNAc
How it was run: as §1

[39] = target: Gal(b1-4)GlcNAc(b1-2)Man(a1-3)[Gal(b1-4)GlcNAc(b1-2)Man(a1-6)][Gal(b1-4)GlcNAc(b1-4)]Man(b1-4)GlcNAc(b1-4)[Fuc(a1-6)]GlcNAc
How it was run: as §1

[40] = target: Gal(b1-4)GlcNAc(b1-2)Man(a1-3)[Gal(b1-4)GlcNAc(b1-2)Man(a1-6)][GlcNAc(b1-4)]Man(b1-4)GlcNAc(b1-4)[Fuc(a1-6)]GlcNAc
How it was run: as §1

[41] = target: Gal(b1-4)GlcNAc(b1-2)Man(a1-3)[GlcNAc(b1-2)Man(a1-6)]Man(b1-4)GlcNAc(b1-4)GlcNAc
How it was run: as §1

[42] = target: Gal(b1-4)GlcNAc(b1-2)Man(a1-3)[GlcNAc(b1-4)][Gal(b1-4)GlcNAc(b1-2)Man(a1-6)]Man(b1-4)GlcNAc(b1-4)GlcNAc
How it was run: as §1

[43] = target: Gal(b1-4)GlcNAc(b1-2)Man(a1-3)[Man(a1-6)]Man(b1-4)GlcNAc(b1-4)GlcNAc
How it was run: as §1

[44] = target: Gal(b1-4)GlcNAc(b1-2)Man(a1-6)Man(b1-4)GlcNAc(b1-4)GlcNAc
How it was run: as §1

[45] = target: Gal(b1-4)GlcNAc(b1-2)Man(a1-6)[GlcNAc(b1-2)Man(a1-3)]Man(b1-4)GlcNAc(b1-4)GlcNAc
How it was run: as §1

B1: PfulAvr4 (Pseudocercospora fuligena) (protein)
chain: HHHHHHDYKDDDDKTYVQDKTPAFVCPAADIKTTKCLGPKDCLYPSPKTCNGYIQCSPADDSYLTGIIHEMPCPSGLLWNDNKKWCDWPENTTCGLVKSAGATEVDATKQGPTPGKYHG
glycan array binding signal (z-score) [1]: -0.046 | glycan array binding signal (z-score) [2]: 0.682 | glycan array binding signal (z-score) [3]: -0.056 | glycan array binding signal (z-score) [4]: -0.09 | glycan array binding signal (z-score) [5]: -0.169 | glycan array binding signal (z-score) [6]: -0.069 | glycan array binding signal (z-score) [7]: -0.139 | glycan array binding signal (z-score) [8]: 0.019 | glycan array binding signal (z-score) [9]: -0.044 | glycan array binding signal (z-score) [10]: -0.115 | glycan array binding signal (z-score) [11]: -0.127 | glycan array binding signal (z-score) [12]: -0.139 | glycan array binding signal (z-score) [13]: -0.105 | glycan array binding signal (z-score) [14]: -0.112 | glycan array binding signal (z-score) [15]: -0.145 | glycan array binding signal (z-score) [16]: -0.093 | glycan array binding signal (z-score) [17]: -0.192 | glycan array binding signal (z-score) [18]: -0.112 | glycan array binding signal (z-score) [19]: 0.188 | glycan array binding signal (z-score) [20]: 0.612 | glycan array binding signal (z-score) [21]: -0.176 | glycan array binding signal (z-score) [22]: -0.13 | glycan array binding signal (z-score) [23]: -0.112 | glycan array binding signal (z-score) [24]: -0.051 | glycan array binding signal (z-score) [25]: 0.215 | glycan array binding signal (z-score) [26]: -0.096 | glycan array binding signal (z-score) [27]: -0.046 | glycan array binding signal (z-score) [28]: -0.141 | glycan array binding signal (z-score) [29]: -0.135 | glycan array binding signal (z-score) [30]: -0.141 | glycan array binding signal (z-score) [31]: -0.099 | glycan array binding signal (z-score) [32]: -0.056 | glycan array binding signal (z-score) [33]: -0.091 | glycan array binding signal (z-score) [34]: -0.106 | glycan array binding signal (z-score) [35]: 0.067 | glycan array binding signal (z-score) [36]: -0.138 | glycan array binding signal (z-score) [37]: -0.092 | glycan array binding signal (z-score) [38]: -0.059 | glycan array binding signal (z-score) [39]: -0.147 | glycan array binding signal (z-score) [40]: -0.085 | glycan array binding signal (z-score) [41]: -0.095 | glycan array binding signal (z-score) [42]: -0.088 | glycan array binding signal (z-score) [43]: 1.71 | glycan array binding signal (z-score) [44]: -0.161 | glycan array binding signal (z-score) [45]: -0.136
